Experimental data from article PMC4336329 (PLoS ONE, 2015).
In all, about 310,000 compounds went through this assay and about 14,000 (4.5%) showed an effect of 50% or more. The effect is printed as a negative number. This is one part of the list.

Target: human ether-à-go-go-related gene (hERG) potassium channel (human, UniProt Q12809)
Assay: primary screen, population patch clamp on CHO cells stably expressing hERG
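Also: peak tail current of the secondary pulse compared with the same well before compound.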

Sequence of human ether-à-go-go-related gene (hERG) potassium channel (Q12809 whole entry, looked up): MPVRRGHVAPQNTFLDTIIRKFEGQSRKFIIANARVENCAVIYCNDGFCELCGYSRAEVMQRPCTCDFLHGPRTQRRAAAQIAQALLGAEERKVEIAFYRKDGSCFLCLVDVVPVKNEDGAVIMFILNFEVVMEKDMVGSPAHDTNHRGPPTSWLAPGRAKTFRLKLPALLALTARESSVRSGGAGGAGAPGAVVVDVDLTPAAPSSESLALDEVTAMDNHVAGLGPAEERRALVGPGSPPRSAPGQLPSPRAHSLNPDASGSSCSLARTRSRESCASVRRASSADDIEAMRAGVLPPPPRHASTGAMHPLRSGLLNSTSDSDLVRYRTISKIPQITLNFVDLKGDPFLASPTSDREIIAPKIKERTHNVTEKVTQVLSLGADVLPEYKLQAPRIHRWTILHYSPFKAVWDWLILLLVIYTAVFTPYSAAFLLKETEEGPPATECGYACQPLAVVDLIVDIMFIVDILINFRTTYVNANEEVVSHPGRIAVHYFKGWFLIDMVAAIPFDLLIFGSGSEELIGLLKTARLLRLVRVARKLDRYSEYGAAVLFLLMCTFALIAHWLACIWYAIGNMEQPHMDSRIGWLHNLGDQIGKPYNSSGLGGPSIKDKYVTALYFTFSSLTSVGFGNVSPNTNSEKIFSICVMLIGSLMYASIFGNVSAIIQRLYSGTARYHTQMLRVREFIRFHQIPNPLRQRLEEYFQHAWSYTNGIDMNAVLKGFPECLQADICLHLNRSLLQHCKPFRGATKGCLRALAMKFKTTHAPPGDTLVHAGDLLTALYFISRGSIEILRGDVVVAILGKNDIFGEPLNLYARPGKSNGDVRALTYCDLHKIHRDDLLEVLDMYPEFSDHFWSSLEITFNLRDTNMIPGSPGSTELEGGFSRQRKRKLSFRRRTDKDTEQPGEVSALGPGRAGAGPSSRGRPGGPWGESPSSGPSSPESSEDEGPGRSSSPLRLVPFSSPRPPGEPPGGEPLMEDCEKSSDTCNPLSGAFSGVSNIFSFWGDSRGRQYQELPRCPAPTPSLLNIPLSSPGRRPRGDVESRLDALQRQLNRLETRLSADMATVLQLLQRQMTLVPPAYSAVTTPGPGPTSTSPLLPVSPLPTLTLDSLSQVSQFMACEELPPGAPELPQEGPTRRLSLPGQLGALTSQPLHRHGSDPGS

Compound | hERG current change (%, negative = inhibition) at 10uM [%]
Cc1cc(C(=O)CN2C(=O)NC3(CCCCC3)C2=O)c(C)n1-c1ccc2c(c1)OCO2 | -56.4
CC1(C)Cc2c(C#N)c(SCC(=O)c3ccccc3)nc(N3CCOCC3)c2CO1 | -10.9
COCCNC(=O)CN(C(=O)c1ccc(N2CCCC2)nc1)c1ccc(F)c(Cl)c1 | 8.46
CC(C)[C@H](CO)N(Cc1cccc(F)c1)c1nc(Nc2cccc(Cl)c2)c2ncn(C(C)C)c2n1 | 7.4
Cc1cccc(C)c1OC(=O)CN(c1ccc(Cl)cc1)S(C)(=O)=O | 16.3
Cc1cc(=O)n2[nH]c(SCc3ccc(Cl)cc3)nc2n1 | -7.55
COc1ccc(/C=N/n2c(SC)nnc2-c2ccccc2)cc1C | -27.8
N#Cc1nc(NCC(F)F)nc(Nc2cc(F)cc(F)c2)n1 | -3.27
O=C(c1ccc(Cl)cc1)N1CCC2(CC1)OCCO2 | 13.2
COc1cc(NC(=O)CN2CCCCC2)c(C)cc1[N+](=O)[O-] | 3.48
N#Cc1c(NCCO)ccc([N+](=O)[O-])c1NCCO | -2.88
C(#Cc1ccccc1)C[N+]1(CC#Cc2ccccc2)CCCCC1.[Br-] | -55.8
CNC(=O)CCN(Cc1ccco1)S(=O)(=O)c1ccc(OC)c(OC)c1 | 14.1
Cc1ccc(NC(=O)CCC(=O)NNC(=O)NC23CC4CC(CC(C4)C2)C3)cc1C | 7.26
CCOC(=O)N1CCc2c(sc(NC(=O)c3ccc(Cl)s3)c2C(N)=O)C1 | 5.77
Cc1ccc(-c2nc3cccnc3s2)cc1NS(=O)(=O)c1ccc2c(c1)OCCO2 | 5.11
COc1cc(/C=N/NC(=O)c2ccc3ccccc3c2)ccc1Oc1ccc([N+](=O)[O-])cn1 | -14
COc1ccc(Cn2c(-c3ccc(OC)c(O)c3)nc3ccccc32)cc1O | 0.823
CNc1oc(Cc2ccccc2)nc1S(=O)(=O)c1ccccc1 | 3.18
CC(C)[C@H](NC(=O)OCc1ccccc1)C(=O)OCc1cc(=O)oc2cc(O)ccc12 | -46.7
Cc1ccc(NC(=O)C2CCN(S(=O)(=O)c3c(C)noc3/C=C/c3ccco3)CC2)nc1 | -21.7

Compound | hERG current change (%, negative = inhibition) at 10uM [%]
COc1ccc(C/C(O)=C(\C#N)c2nc3ccccc3s2)cc1 | 11.6
CSCC[C@H](NC(=O)OC(C)(C)C)C(=O)NCC1CCC(C(=O)N[C@@H](Cc2ccccc2)C(=O)O)CC1 (stereo partly drawn) | 13.4
C[C@@H]1CCC(=O)N(CC[C@H](Sc2ccccc2)c2ccccc2)CC1 | -5.35
O=C(Nc1ccc2ccccc2n1)Nc1cccs1 | 14.5
Cc1ccnc(NC(=O)CCCOc2ccccc2)c1 | 19
CCOc1ccc(C2C(C(=O)c3ccco3)=C(O)C(=O)N2CCN2CCOCC2)cc1 (stereo not drawn) | 7.83
COc1ccc(/C=C/C(=O)NCc2cn(C)nc2C)cc1COc1ccc(Br)cc1 | 7.33
C[N+]1(CCOc2ccc([N+](=O)[O-])cc2)CCOCC1.[I-] | -25
Brc1ccccc1OCCCN1CCCC1.O=C(O)C(=O)O | -12.4
Cc1cccc(C(P(=O)(c2ccccc2)c2ccccc2)P(=O)(c2ccccc2)c2ccccc2)n1 | -4.25
Nc1c(Cl)c(Cl)nc(C(=O)OCC(=O)NC2CCCCC2)c1Cl | -58.2
Cc1ccc(C(=O)N2c3ccccc3CC2C)o1 (stereo not drawn) | 21.7
O=C(NC1CCCCC1)C(c1ccc(Cl)cc1)N(C(=O)c1cnccn1)c1ccc2c(c1)OCO2 (stereo not drawn) | -17.1
CCCCNC(=O)c1ccc(CS(=O)(=O)c2ccc(C)cc2)o1 | 15.1
CCOc1ccc(Br)cc1C1C(C(=O)OC)=C(N)Oc2cc(N(C)C)ccc21 (stereo not drawn) | 21.4
CCCn1nc2cc(C(=O)NCCc3cccs3)ccc2c1OCC | -12.3
O=C(NCc1ccccn1)C1CCN(Cc2cnn(-c3ccccc3)c2-n2cccc2)CC1 | -24.1
COc1ccc(S(=O)(=O)Nc2ccc(OCC(=O)O)cc2)c2ccccc12 | 24.6
CCc1nc2cccnc2n1-c1ccc(CC(=O)NC(C)CC)cc1 (stereo not drawn) | 19
CC(c1ccccc1)N(CCC(c1ccccc1)C1CCOC(C)(C)C1)C(=O)c1ccco1 (stereo not drawn) | -22.2
O=C(CC(c1ccc(F)cc1)c1ccco1)N1CCOCC1 (stereo not drawn) | -18.4

Compound | hERG current change (%, negative = inhibition) at 10uM [%]
CCc1nccn1CCC(=O)NC1CC(C)(C)Cc2c1cnn2-c1cccc(F)c1 (stereo not drawn) | -5.48
COc1ccccc1N(C(=O)c1ccco1)C(C(=O)NC1CCCC1)c1ccc(N2CCOCC2)cc1 (stereo not drawn) | -11.4
Cc1cccc(-n2c(O)c(C=Nc3ccc(Br)cn3)c(=O)[nH]c2=O)c1 | 20.2
CC1CCc2c(sc3nc(CSc4n[nH]c(N)n4)[nH]c(=O)c23)C1 (stereo not drawn) | -19.4
O=C1CCC(C(=O)N2CCN(c3ccccc3)CC2)CN1CC1CCCCC1 (stereo not drawn) | -27.5
NC(=O)c1ccc(NC(=O)COC(=O)/C=C/c2cn(-c3ccccc3)nc2-c2cccnc2)cc1 | 0.231
Cc1ccc(/C=C/C(=O)N2CCN(S(=O)(=O)c3cccs3)CC2)o1 | -5.96
COc1ccc(S(=O)(=O)NCc2cccnc2)cc1NC(=O)c1ccc(Cl)cc1 | -52.2
CC(C)Sc1nc2c(c(=O)[nH]c(=O)n2C)n1Cc1ccccc1 | -4.27
Cc1ccc2nc3c(cc(C#N)c(=N)n3Cc3cccnc3)c(=O)n2c1 | -60.4
CN(C(=O)COC(=O)c1ccc(Br)c([N+](=O)[O-])c1)c1c(N)n(Cc2ccccc2)c(=O)[nH]c1=O | 2.39
C=CCn1c(SCc2ccc([N+](=O)[O-])cc2)nnc1C(C)NC(=O)c1ccccc1 (stereo not drawn) | -54.5
CCOC(=O)CSc1nc2c(c(=O)n(C)c(=O)n2C)n1Cc1ccccc1F | -21.4
O=C(CN1CCN(c2ccc(F)cc2)CC1)Nc1ccc(F)c(F)c1 | -27.8
CCOc1ccc(CN(C)C(=O)CNC(=O)c2sc3ccccc3c2Cl)cc1 | 14
NC(=O)c1cc(-c2ccccc2)nc(Oc2ccccc2)n1 | -1.98
O=C(CN1C(=O)NC2(CCOc3ccccc32)C1=O)c1ccc(Cl)cc1 (stereo not drawn) | -43.5
CSc1cccc(NC(=S)N2CCC(N(C)C3CCCCCC3)CC2)c1 | -62.9
COc1cc(C(=O)NCC(=O)N/N=C(/C)c2ccc3c(c2)CCCC3)cc(OC)c1OC | 7.09
COc1ccc(CC(=O)NC(C)(C)CC(C)=O)cc1OC | -2.76
Fc1cc(F)c2nc(Nc3nc4cc5c(cc4s3)OCO5)sc2c1 | 15.2

Compound | hERG current change (%, negative = inhibition) at 10uM [%]
Cc1c(Cl)cccc1NS(=O)(=O)c1cccc2nsnc12 | -4.17
Oc1ccc(/C=C/c2ccc3cccc(O)c3n2)cc1Br | 11.2
CC1(C)CC2CC(C)(CN2C(=O)c2cc(-c3ccc(O)cc3)on2)C1 (stereo not drawn) | -15.4
CC(C)c1nc2oc3c(N(C)CCO)ncnc3c2c2c1CCC2 | -28.1
CCn1c(CNC(=O)c2cccc(C)c2)nnc1SCC(=O)NC1CCCC1 | -11.8
CCN(CC(=O)Nc1ccccc1C(F)(F)F)C(=O)C1CCN(C(=O)Nc2ccccc2)CC1 | -0.222
Clc1cccc(NCc2nnc(SCc3ccccc3Cl)o2)c1 | 6.21
O=C(c1cc2ccccc2o1)N1CCN(S(=O)(=O)c2ccc(F)c(F)c2F)CC1 | -6.88
c1ccc2c(N3CCCC3)nc(-c3ccncc3)nc2c1 | -56.9
CC1(C)Cc2c(c(N3CCOCC3)nc3sc4c(NCCN5CCOCC5)nnnc4c23)CS1 | -48
CC(C)C(=O)Nc1ccc(C(=O)NCc2cccnc2)cc1 | -0.537
CCOc1ccc(NC(=O)COC(=O)C2(C)CC2(Cl)Cl)c([N+](=O)[O-])c1 (stereo not drawn) | -16.4
O=C(N/N=C/c1ccc(O)cc1)c1ccc(NC(=O)c2ccccc2Br)cc1 | -4.47
Cc1ccc(SCC(=O)Nc2nccs2)cc1 | 5.21
CNc1nc(C)cc(C)c1S(=O)(=O)c1ccc(C)cc1 | 4.23
Cc1cc(C)nc(N2CCC(C(=O)NCCc3ccc(Cl)cc3)CC2)n1 | 21.6
CC1=NNC(=O)C1CCC(=O)N/N=C/c1ccc(C)cc1 (stereo not drawn) | 4.3
COC(=O)N1N=C(c2ccccc2)CC1(O)C(F)(F)F (stereo not drawn) | 8.7
O=C(CN1C(=O)NC(Cc2c[nH]c3ccccc23)C1=O)Nc1ccccc1Br (stereo not drawn) | -15.4
O=C(O)c1cc(S(=O)(=O)N(Cc2ccccc2)c2ccccc2)ccc1Cl | 13.9
CCOc1cc(NC(=S)NCCOC)c(OCC)cc1NC(=O)c1cccs1 | 14.2
